#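 Results reflect a 48-hour exposure of cells in 96-well plates to compound at five concentrations. GI50 = concentration required for 50% inhibition of growth. TGI marks complete inhibition of growth.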
# Test system: NCI-H322M lung
# Assay: NCI-60 cell line screen, 48 h
SMILES,GI50 [µM],TGI [µM]
COc1cc2oc(-c3cccc(C(=O)Nc4ccc(Cl)cc4)c3)cc(=O)c2c(OCCNC(=O)[C@@H](N)CO)c1OC,13.4,29.9
COc1ccc2[nH]c(O)c(N=NC(=O)Cn3c(-c4ccccc4)nc4cc(C)ccc43)c2c1,14.1,34
O=C(N/N=C/c1ccoc1)c1[nH]c2ccc(Br)cc2c1-c1ccccc1,2.15,16.3
